# In all, about 310,000 compounds went through this assay and about 14,000 (4.5%) showed an effect of 50% or more. Effects have a minus sign here. Some of the results follow.
# Target: human ether-à-go-go-related gene (hERG) potassium channel (human, UniProt Q12809)
# Assay: primary screen, population patch clamp on CHO cells stably expressing hERG
# 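Further: peak tail current of the secondary pulse compared with the same well before compound.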
# human ether-à-go-go-related gene (hERG) potassium channel, sequence (Q12809 whole entry, looked up): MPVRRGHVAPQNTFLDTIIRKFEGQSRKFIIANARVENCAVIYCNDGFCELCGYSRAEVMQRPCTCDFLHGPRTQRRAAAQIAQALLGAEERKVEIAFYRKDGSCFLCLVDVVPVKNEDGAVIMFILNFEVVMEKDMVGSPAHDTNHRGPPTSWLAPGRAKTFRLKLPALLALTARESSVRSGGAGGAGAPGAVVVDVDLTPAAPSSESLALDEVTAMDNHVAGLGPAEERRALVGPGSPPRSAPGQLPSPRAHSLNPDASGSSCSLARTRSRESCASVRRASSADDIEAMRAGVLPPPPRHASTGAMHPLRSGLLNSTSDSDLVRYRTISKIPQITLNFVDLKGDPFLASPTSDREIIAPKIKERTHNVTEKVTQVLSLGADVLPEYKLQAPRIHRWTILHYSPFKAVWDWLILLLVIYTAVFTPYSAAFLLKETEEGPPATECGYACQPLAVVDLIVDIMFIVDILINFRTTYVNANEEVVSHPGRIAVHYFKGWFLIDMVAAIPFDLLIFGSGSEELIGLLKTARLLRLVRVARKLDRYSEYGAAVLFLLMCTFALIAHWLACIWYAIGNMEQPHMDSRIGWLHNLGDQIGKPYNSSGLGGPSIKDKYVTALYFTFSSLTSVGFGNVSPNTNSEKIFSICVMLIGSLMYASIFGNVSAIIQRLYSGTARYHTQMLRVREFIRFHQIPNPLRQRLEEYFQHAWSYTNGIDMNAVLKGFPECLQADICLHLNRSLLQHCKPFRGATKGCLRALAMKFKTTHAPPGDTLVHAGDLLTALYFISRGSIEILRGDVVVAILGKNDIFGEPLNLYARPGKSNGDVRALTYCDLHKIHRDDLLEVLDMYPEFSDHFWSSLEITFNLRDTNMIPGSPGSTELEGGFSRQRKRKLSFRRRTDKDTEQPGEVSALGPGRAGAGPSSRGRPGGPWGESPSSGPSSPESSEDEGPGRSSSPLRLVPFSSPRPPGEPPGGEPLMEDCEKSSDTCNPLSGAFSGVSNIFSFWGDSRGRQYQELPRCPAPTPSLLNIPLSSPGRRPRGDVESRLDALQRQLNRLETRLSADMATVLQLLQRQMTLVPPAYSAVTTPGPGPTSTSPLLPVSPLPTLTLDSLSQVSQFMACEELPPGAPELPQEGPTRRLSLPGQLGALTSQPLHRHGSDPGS
row,Compound,"hERG current change (%, negative = inhibition) at 10uM [%]"
1,NS(=O)(=O)c1ccc(NC(=O)COC(=O)C2CC(=O)N(Cc3ccccc3)C2)cc1 (stereo not drawn),36.4
2,CCc1c(C)sc(NC(=S)N2CCN(CC)CC2)c1C(=O)OC,36.1
3,COc1ccc(NC(=O)NNC(=O)COc2cc(C)c(Cl)c(C)c2)c(OC)c1,20.8
4,COCCSc1nnc(NC(=O)C2CC(=O)N(C3CCCC3)C2)s1 (stereo not drawn),21.8
5,Cc1ccc(S(=O)(=O)c2nc(S(=O)(=O)c3ccc(C)cc3)c(N3CCN(CCO)CC3)s2)cc1,-26.1
6,Cc1nc2n[nH]c(N)c2c2c1COC(C)(C)C2,-10
7,CN(C)S(=O)(=O)c1ccc(Cl)c(C(=O)OCC(=O)NC(=O)NC2CCCC2)c1,4.07
8,N#C/C(=C/c1ccc(-c2ccccc2[N+](=O)[O-])o1)C(N)=O,49.1
9,CC1Sc2ccc(C(=O)Nc3ccccc3OC(F)F)cc2NC1=O (stereo not drawn),3.79
10,CC(=O)c1ccc(N2CCN(C(=O)c3cc4c(-c5ccccc5F)nn(C)c4s3)CC2)cc1,-20.7
11,COC(=O)C1(C)Nc2ccccc2C(=O)N1c1ccccc1C (stereo not drawn),-4.22
12,COc1ccc(/C=C/C(=O)O)cc1S(=O)(=O)NCc1cccnc1,3.02
13,O=C(c1cc(COc2ccc(F)cc2Cl)on1)N1CC[C@@H]2CCCC[C@H]2C1,12.6
14,COc1ccc2cc(C(c3nnnn3Cc3ccc(F)cc3)N3CCCCCC3)c(=O)[nH]c2c1 (stereo not drawn),-23.3
15,O=C(OCCN1C(=O)c2cccc3c(N4CCOCC4)ccc(c23)C1=O)c1ccc(Cl)cc1,-0.964
16,Cc1cccc(OCC(=O)NCCCNC(=O)c2ccncc2)c1,3.39
17,CCCCN(CC(O)COc1cccc(C)c1)CC(O)COc1cccc(C)c1 (stereo not drawn),-81.7
18,COc1ccc(-c2nc(NC(=O)c3nc4nccc(C)n4n3)sc2C)cc1,14.1
19,O=C(CSc1nc2c(c(=O)n1-c1ccc(Cl)cc1)SCC2)Nc1ccc2c(c1)OCCO2,2.91
20,O=C(O)c1cccc2c1C(=O)N(Cc1ccccc1)C2,-18.3
21,Oc1ccc(Br)cc1C=Nc1cccn2cc(-c3ccccc3)nc12,21.1
22,CCNC(=S)NS(=O)(=O)c1ccccc1,18.7
23,CCn1nnnc1SCC(=O)Nc1cc(OC)cc(OC)c1,11.8

row,Compound,"hERG current change (%, negative = inhibition) at 10uM [%]"
1,O=C(Nc1cccnc1)c1cc(-c2ccc(Br)cc2)on1,13.6
2,Cc1c(C(=O)N2CCN(c3ccccc3)CC2)oc2c(F)cccc12,9.11
3,COc1cccc(CNC(=O)CCCc2nnc3n(C)c(=O)c4sccc4n23)c1,-22.2
4,CCNC(=O)CC1C(=O)N(c2ccc(OC)cc2)C(=S)N1CCc1ccncc1 (stereo not drawn),-30.7
5,Cc1nccn1Cc1ccc(Cl)nc1,16.6
6,COC(=O)c1ccc(C(=O)N=c2sccn2C)cc1,-1.71
7,COc1ccc(NC(=O)c2sc3ncn(CC(=O)N4CCN(c5ccccn5)CC4)c(=O)c3c2C)cc1OC,2.08
8,CCCN(CCC)CCCNC(=O)C1CCN(S(=O)(=O)c2cccc3nsnc23)CC1,-4.02
9,Cc1ccccc1OCC(=O)NNC(=O)c1ccoc1C,6.75
10,COc1ccc(-c2c(-c3ccccc3OC)sc3ccccc23)cc1,12.3
11,Clc1ccc(Oc2cnns2)cc1Cl,0.0504
12,O=c1oc2c(O)cccc2cc1-c1nc2ccccc2[nH]1,12.2
13,CCOc1ccc(NC(=O)CNC(=O)c2ccco2)cc1,22.3
14,Cc1ccc(NC(=O)c2ccc3nsnc3c2)c(C)c1,17.7
15,C/C(=N\NC(=O)CSCc1ccc([N+](=O)[O-])cc1)c1ccccc1,-18
16,CCC1(CC)NC(=O)N(CC(=O)OCC(=O)Nc2ncc(Cl)cc2Cl)C1=O,-4.07
17,Cn1nnnc1SCC(=O)Nc1c(Cl)cccc1Cl,10.8
18,CCOC(=O)N1CCN(C(=O)c2ccc(SC)cc2OC)CC1,-2.46
19,Fc1ccccc1COc1cccc(/C=N/n2cnnc2)c1,-18.6
20,NC(=O)c1cnccn1,10.4
21,CCOC(=O)C1=C(C)NC(=O)C1CC(=O)Nc1ccccc1 (stereo not drawn),14.4
22,COc1cccc(C(=O)NCCSc2c(C)[nH]c3ccccc23)c1OC,-1.27
